Sequences with one replicate were seen in a single cluster, so their values are uncertain.
Test system: ATP
Test: switch fluorescence ratio, 500 uM ATP over buffer (Cy3 cluster intensity, sum of 5 cycles each) (fold (ratio)); higher = stronger signal-on switching upon ATP binding; sequences stand for … in TCGTCGGCAGCGTCAGATGTGTATAAGAGACAGTTTTTTTTTTTTTTTTTTTTTTTTT…TC
Settings: aptamer strand: ATP DNA aptamer (quencher-CACCTGGGGGAGTATTGCGGAGGAAGG + anchor), 100 nM annealed; ATP concentration: 500 uM; one replicate
How it was run: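 For every switch-domain sequence, the fluorescence ratio is the mean of per-cluster values, each being summed target-cycle Cy3 intensity over summed buffer-cycle Cy3 intensity. Clusters outside 100-1000 RFU were excluded. On a modified Illumina MiSeq flow-cell, the Cy3-labelled switching-strand clusters were annealed to 100 nM quencher-labelled ATP aptamer, imaged in selection buffer and then after 15 min with 500 uM ATP at 22 °C. Five such cycles were run, with NaOH stripping and re-annealing between them.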
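Note: ATP exposure 15 min at 22 °C before imaging.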

Sequence | switch fluorescence ratio
ACTTATTAAC | 1.03
TCCATCGTAT | 1.07
CATGCAGGGG | 1.11
ATAATAACGA | 1.03
TCGCGGGATT | 1.01
TACTCGTTCA | 1.03
AGCGATACAT | 1.98
GTCACGGAAT | 1.07
AGTGGGGACT | 0.974
AATGCGTTAG | 0.958
TATGTTCGAC | 1.01
TTCCGTTCGA | 1.07
GCGTACTGGT | 0.988
CTACCTGATA | 1.03
TTAATACGTA | 1.07
GTGAACTGCC | 1.12
TATGTCGGTC | 0.993
CCCGGAATTA | 1.62
AGACTGAGA | 0.977
CTTTTGGGGC | 0.99
AAATGAATGA | 0.98
AGGTCTTTGG | 1.06
AGGCTGGGTT | 1.01

Sequence | switch fluorescence ratio
TTAGGATGGT | 0.975
GACCCGTTTT | 0.953
TTATTAGGCC | 0.976
GGGGCCTTTT | 0.969
AGACAATTT | 0.97
ACATGTCATA | 1.04
ATTAGATTAC | 1.04
ACAGCCCCCC | 1.05
TGGGAACATG | 1.01
GCAAGGTTAA | 0.973
ATTGTACCGG | 1.04
CTCCAAGGTA | 1.56
GGACGCAGCT | 1.27
ATAGAGTAAG | 1.01
AGGATCCATC | 0.994
GACACAATT | 1.09
AACATTCCAT | 1.04
TCGGGTGCCA | 0.969
ATAGGATTAA | 0.967
ACACCGACTT | 1.2
CAAATATTT | 1
ATCGTCATTT | 1
GCTTGATTGT | 1.03

Sequence | switch fluorescence ratio
AAGTACTAGA | 1.24
CGTGGGCCGC | 1.03
AAACAACTAC | 1.09
AATAATAGGA | 1.03
AGGTCAGTCC | 0.997
GGTAATCATG | 1.03
GAATTCCGGG | 1.02
ACTAGCCCGT | 0.987
CTCGGTGCGT | 0.977
GCGAGCGTTT | 0.99
ATAGCGAATT | 1.03
AATTTCCATG | 0.982
GGTCGTCGTC | 1.03
AGACGGCCGT | 1.37
TTAATGCTTC | 1.01
CCGTGTGTAG | 1.03
GAACCCAGTT | 0.953
CATGTCTAAA | 0.953
TAGCGCAGG | 1.03
CCACTATTTC | 1.06
ACGGAGATTT | 1
ACTACAAGA | 1.04
TTTCAAGTCT | 0.979

Sequence | switch fluorescence ratio
AGTCCGTTCT | 1.05
TGGGCGTACC | 1.09
ACCACAGGCC | 1.03
CGTAATATGT | 1.1
AAAGACCCAA | 1.03
CCAAAGTTAT | 1.09
ACCCTAGCTA | 1.11
TGACGGCCTA | 1.07
TGGGTATGCC | 0.926
TGCATCAGCG | 0.981
TATCCTTTTG | 0.992
TTGTGATTTA | 0.977
GATGTTGGG | 0.947
GAGGAGCGT | 0.977
TCGAGCTCGT | 1.04
GTAGGTCGTT | 0.976
GCTCTATAAC | 1.12
ACGCTCGGGG | 1.07
TGCGGTAGGA | 1.01
GTCGGACAGC | 1.04
CTCAGAGCTG | 0.972
ATATATAGT | 1
CGTTGGCTTC | 0.999

Sequence | switch fluorescence ratio
AGCTGATAG | 1.09
TTGCCGGAGT | 0.975
AGGAAGTAGT | 1.02
CGGCCACAGG | 1.3
GTATTATATT | 1.01
CGCAAACGGA | 2.61
CGAAGGTGGG | 1.02
GGTCGGACAT | 0.921
TCATTATAGA | 1.04
ATATCGGGAT | 0.956
CGATAGGACT | 1.04
ACTGGATTCA | 1.02
TTAAGGTTCC | 1.11
GTACCAGCGC | 1.01
GTGGATTCTC | 1.01
CCTAGCCACG | 1.07
CTGGGGGAAA | 1.01
GCATGTTCAC | 0.951
AACACGGGGA | 1.03
ATGTGTGGTA | 0.979
CTTCTCAGT | 1
CGAAGAAGT | 0.964
ACCTGCGCAG | 1.1

Sequence | switch fluorescence ratio
CCTAGCGCTC | 2.94
CTACAGCATC | 2.51
TAGTCGGCGA | 0.978
GATCTCCTCT | 1.01
CATTGAACTA | 0.973
GGCTTCACTG | 0.961
GCTGCGGTAT | 1.02
TAGAAGATAA | 0.96
TCAGACAGTC | 1.01
CCTTCTGGAT | 1.03
GATCGCACGC | 1.94
GTCAACGTTC | 0.936
GTGAACCATG | 1.04
ACGTTCGATT | 0.979
ACCAGTACAT | 1.1
AGGAAAATTA | 0.976
TGTCATGGT | 1
TCGTCAAAGG | 1.01
GTTCTAAATG | 1.01
ACTTTGTTCA | 1.05
GTTCACTGGA | 0.989
TCACTCGGG | 1.01
CTTTGTCAAT | 1.21

Sequence | switch fluorescence ratio
ACTATCAACT | 1.03
TTAACTGAGG | 1
AATGAGTCCT | 1.02
TTATGCAGTG | 0.969
GTAACGCGC | 1.02
ACCCTGCGGC | 1.11
CGAGGGGTA | 1.03
CTGAGCCTGG | 1.02
CAACTATCAA | 0.963
ACGGGATCCA | 1.05
GTGCCGGCGC | 1.04
GCGCAAGTGT | 1.01
CATTGAACCT | 1.9
GTCTTTGGTG | 1.06
TTGGATACAA | 0.953
TGCGGCAAGT | 0.987
TTTGACAACA | 1.02
TTGTGTTG | 0.969
CTTCTGTTGT | 1.03

Source: the supplement of paper PMC10126150
